Screen size: about 120,000 compounds; about 5,300 (4.4%) were called active. The inconclusive results got no clear call from the source; some entries with a clear call stand among them for comparison. The call rests on the fitted dose curve; in most records, active means well fitted inhibition curve with a large enough effect; inconclusive means small, poorly fitted or top-dose-only effect; inactive means no such curve, though single readings can be large or run the other way. Where the call is inconclusive, the potency comes from a doubtful curve fit.
Assay: qHTS Primary assay for Inhibitors of Plasmodium falciparum Dd2 growth in vitro; further: nearly all actives have a fitted effect of over 65% in size;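 on activity, negative = inhibition: plate controls were DMSO vehicle for no effect and reference drug for full effect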
Conditions: P. falciparum Dd2 growth, SYBR Green, 72 h; activity, negative = inhibition: at 28.9 µM (top of the series) unless noted; series mostly up to 28.9 µM
Method in brief: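 Readout: SYBR Green fluorescence, 485 nm excitation, 535 nm emission, after ~16 h lysis at 37C. Before that, Dd2-infected red cells (2.5% hematocrit) grew 72 h with compound, 29 uM top final concentration.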
Potency means the concentration at half of the fitted maximal effect; tags describe the fitted curve by direction and shape.

Structure (SMILES)	Potency	activity, negative = inhibition
COc1ccc(N2CCN(C(=O)c3c(C)nn(-c4ccc(F)cc4)c3-n3cccc3)CC2)cc1	inactive	
CS(=O)(=O)N1C[C@H]2CCN(C(=O)c3ncccc3F)C[C@H]21	inactive	
CC(=O)c1ccc(NC(=O)N2C[C@@H]3C[C@H](C2)c2ccc(NC(=O)C4CCCCC4)c(=O)n2C3)cc1	inactive	
Cc1cccc(C(=O)Nc2nc3c(s2)CCCC3)c1	inconclusive: 7.94 µM [inhibitor, single point]	
CCOC(=O)N1CCc2c(sc3c2c(=O)n(CCc2ccccc2)c(=O)n3Cc2ccc(C)cc2C)C1	active: 2.51 µM	
COc1ccc(-c2nc(CCNC(=O)Cc3ccc(F)cc3)cs2)cc1	inconclusive: 2.51 µM [inhibitor, partial curve]	
COc1cccc(NC(=O)[C@@H]2C[C@@H](O)CN2C2CCN(C(=O)c3cccc(OC)c3)CC2)c1	inconclusive: 17.8 µM [inhibitor, single point]	
Cc1nn2c(c1-c1ccccc1N1CCCC1)N(C(=O)c1cccc(N(C)C)c1)CCC2	inactive	
Cc1noc(-c2cn(C3CCN(C(=O)c4cccc(OC(F)(F)F)c4)CC3)nn2)n1	inactive	
O=C(c1cccc2[nH]ccc12)N1CCC(N2C(=O)C3(CCCCC3)C2c2ccncc2)CC1 (stereo unspecified)	inconclusive: 7.94 µM [inhibitor, partial curve, poor fit]	
c1cncc(Nc2cc3c(cn2)CN(CC2CCOCC2)CCN3)c1	inactive	
Cn1cnc(S(=O)(=O)N2CCC(Cc3nncn3CC3CC3)C2)c1 (stereo unspecified)	inactive	
CNC(=O)[C@@H]1CN(C(=O)c2ccc(C)c(F)c2)C[C@H]1COC	inactive	
CCn1nc(CC(C)C)cc1C(=O)N1CCN(CCn2cccc2)CC1	inconclusive: 12.6 µM [inhibitor, partial curve]	
CN1C(=O)C2(CCN(C(=O)NC3CCCCC3)CC2)c2ccccc21	inconclusive: 7.94 µM [inhibitor, single point]	
COc1ccc(C2(C(=O)N3c4ccccc4CC3c3noc(C4CCOCC4)n3)CC2)cc1 (stereo unspecified)	inconclusive: 8.91 µM [inhibitor, single point]	
CC(C)(C)OC(=O)N1CCC(c2c(C(=O)O)cnn2-c2ccc(F)cc2F)CC1	inactive	
O=C(CN1C(=O)COc2ccc(S(=O)(=O)N3CCCCCC3)cc21)N1CCN(c2cccc(Cl)c2)CC1	inconclusive: 12.6 µM [inhibitor, single point]	
Cc1ccc(C(=O)N2CCC3(CC2)CC(N(Cc2ccccc2)C2CC2)CCO3)s1 (stereo unspecified)	active: 1.58 µM	
CC(=O)N[C@H]1C[C@@H](c2nc(-c3cccnc3)no2)N(C)C1	inactive	
CN1CCCCCC(O)c2cc(C(=O)NCc3cccc(C(F)(F)F)c3)ccc21 (stereo unspecified)	active: 10 µM	
CCc1ccccc1NC(=O)C1=CC(c2ccc3c(c2)OCO3)=NS(=O)(=O)N1C	inactive	

Structure (SMILES)	Potency	activity, negative = inhibition
CCOc1ccccc1NC(=O)Cn1c(=O)n(Cc2ccco2)c(=O)c2cccnc21	active: 11.2 µM	
CCCC(=O)Nc1c(C(=O)N2CCN(c3ccccc3)CC2)oc2ccccc12		inactive: 120% [at 5.79 µM]
CN1Cc2ncnc(N3CCOCC3)c2CN(C2CCCCC2)C1=O	inactive	
CCc1ccc(S(=O)(=O)c2nnn3c2nc(N2CCN(CC)CC2)c2sccc23)cc1	inconclusive: 11.2 µM [inhibitor, single point]	
CC(C)NC(=O)C[C@@H]1O[C@H](CNCc2cccc(Cl)c2)[C@@H](O)[C@H]1O	inactive	
CCOC(=O)c1ccc(N2C(=O)c3n[nH]c(-c4ccco4)c3C2c2cccc(F)c2)cc1 (stereo unspecified)	active: 10 µM	
Cc1ccc(NC(=O)CSc2nc3ccc(NC(=O)c4cccc(Cl)c4)cc3s2)c(C)c1	inconclusive: 11.2 µM [inhibitor, single point]	
c1ccc(-c2ccnc3nc(C4CCC4)nn23)cc1	inactive	
CCc1ccccc1N(C)C(=O)c1cc2c(s1)-c1c(C)cccc1OC2	inconclusive: 20 µM [inhibitor, single point]	
Cc1ccc(Cn2c(C)c(CNCc3ccccc3F)c(C(=O)O)c2C)cc1	inconclusive: 10 µM [inhibitor, single point]	
CC(C)NC(=O)N1CCC2(CC1)CN(C(=O)Cc1cccc(O)c1)Cc1ccccc1O2	inconclusive: 12.6 µM [inhibitor, single point]	
CC(C)NS(=O)(=O)c1ccc(OCC(=O)N2CCN(c3cccc(Cl)c3)CC2)cc1	inconclusive: 10 µM [inhibitor, single point]	
COc1cc(-c2ccnc3nc(Cc4ccc(F)cc4)nn23)cc(OC)c1OC	inconclusive: 1 µM [inhibitor, full curve, poor fit]	
O=C(CCC1CCN(C(=O)c2cc(C3CC3)[nH]n2)CC1)N1CCC(Cc2ccccc2)CC1	inactive	
COc1ccc(C(=O)N2CCCCC23Cc2ccccc2NC3=O)cc1 (stereo unspecified)	inconclusive: 14.1 µM [inhibitor, partial curve, poor fit]	
COc1ccc(C(=O)c2cn(Cc3ccc(F)cc3)c3c(F)cc(F)cc3c2=O)cc1	inconclusive: 10 µM [inhibitor, single point]	
CCc1cc(N(C)Cc2noc(C3CC3)n2)n2nc(C)c(C)c2n1	inconclusive: 8.91 µM [inhibitor, partial curve]	
C1CC(COCCc2noc(C3CNC3)n2)CCO1	active: 11.2 µM	
CCN1c2cc(C(=O)Nc3cccc(C(=O)OC)c3)ccc2C(=O)N2CCCCCC21 (stereo unspecified)	inconclusive: 3.98 µM [inhibitor, partial curve, poor fit]	
CCOc1ccccc1C(=O)N1CCc2cc(OC)c(OC)cc2C1COc1ccc2c(C)cc(=O)oc2c1 (stereo unspecified)	inconclusive: 1.12 µM [inhibitor, partial curve, poor fit]	
COc1ccc(CNC(=O)c2cnn(-c3ccc(C)cc3)c2C2CCN(C(=O)OC(C)(C)C)CC2)cc1	inconclusive: 11.2 µM [inhibitor, single point]	
CC(C)CNC(=O)N1CCCCC1c1nc(CCOc2ccc(F)cc2)no1 (stereo unspecified)	inconclusive: 8.91 µM [inhibitor, single point]	

Structure (SMILES)	Potency	activity, negative = inhibition
O=C(NC[C@H]1O[C@@H](CO)[C@@H](O)[C@H]1N1CCCCC1)Nc1ccccc1	inactive	
CCOC(=O)C1CCN(C(=O)c2ccc3c(c2)sc2nc(-c4ccc(OCC)cc4)cn23)CC1	active: 8.91 µM	
COc1ccc(-c2nc(SCC(=O)NC3CCCC3)c(-c3ccccc3)[nH]2)cc1OC	inconclusive: 17.8 µM [inhibitor, single point]	
COc1ccc(CC(=O)NC[C@@H]2CC[C@H]3C[C@@H]2C3(C)C)cc1	inconclusive: 12.6 µM [inhibitor, single point]	
CCc1ccc(CN2CCC(Oc3ccc(C(=O)NCCOC)cc3Cl)CC2)o1	inconclusive: 0.501 µM [inhibitor, full curve, poor fit]	
O=C1NCCN1C1CCN(Cc2cncs2)CC1	inactive	
CCn1nc(CC(C)C)cc1C(=O)N(C)C1CCCN(C2Cc3ccccc3C2)C1 (stereo unspecified)	inconclusive: 12.6 µM [inhibitor, partial curve, poor fit]	
CC(=O)N1CCC2(CCN(C(=O)c3ccc(Cl)cc3)CC2)Oc2ccccc21		inconclusive: -36.2% [inhibitor]
COc1cccc(-c2nnnn2[C@H]2CO[C@H]3[C@@H]2OC[C@@H]3NC(=O)c2ccc(C)cc2)c1	inconclusive: 8.91 µM [inhibitor, partial curve, poor fit]	
CSc1ccc(NC(=O)c2cc3c(N4CCSCC4)nc(C)cn3n2)cc1	inconclusive: 8.91 µM [inhibitor, partial curve, poor fit]	
Cc1cc(C)cc(N(CC(=O)Nc2ccc(C(F)(F)F)cc2)S(=O)(=O)c2c(C)[nH]c(=O)[nH]c2=O)c1	inconclusive: 15.8 µM [inhibitor, single point]	
CCOc1ccc(S(=O)(=O)N2CCN(C3(CC)CCN(C(=O)NC)C3)CC2)cc1 (stereo unspecified)	inconclusive: 11.2 µM [inhibitor, single point]	
COCCc1noc(-c2nc(-c3ccccc3F)no2)n1	inactive	
COCCN1C(=O)c2cccn2CC1CNC(=O)CCc1nc2ccccc2s1 (stereo unspecified)	inconclusive: 0.501 µM [inhibitor, single point]	
CC(C)CCN1CCC2(CC1)COc1ccccc1[S+](=O)([O-])N2	inconclusive: 10 µM [inhibitor, partial curve]	
O=C(Cn1cccc1-c1nc(-c2ccccc2)no1)Nc1ccc(F)c(F)c1	inconclusive: 2.24 µM [inhibitor, partial curve, poor fit]	
COc1ccc(-n2c(=O)c3c4c(sc3n(Cc3ccccc3)c2=O)CCC4)c(OC)c1	inconclusive: 17.8 µM [inhibitor, single point]	
CC(O)c1cc2n(n1)CCN(C(=O)Cn1nnc(-c3ccc(F)cc3)n1)C2 (stereo unspecified)	inactive	
CCn1c(=O)c(=O)n(CC)c2cc(N3CCCCC3)c(NC(=O)c3cccc(OC)c3)cc21		inconclusive: -98.1% [inhibitor] [at 5.79 µM]
Cc1oc(-c2ccc(C(=O)N(C)Cc3ccccc3)cc2)nc1CN1CCc2ccccc21	inconclusive: 17.8 µM [inhibitor, single point]	
O=C1NCCCCCCN(Cc2ccncc2)[C@@H]2CN(C(=O)Nc3ccc4c(c3)OCCO4)CC[C@H]12	inconclusive: 17.8 µM [inhibitor, single point]	
CN(C)C[C@@H]1CN(c2ncccn2)C[C@H]1NC(=O)c1nn(C)c2ccccc12	inconclusive: 6.31 µM [inhibitor, single point]	

— PubChem BioAssay AID1347417 (National Center for Advancing Translational Sciences (NCATS), 2020)
